The other results are listed elsewhere or left out.
Key:
HSkMC = human skeletal muscle cells; assay: cytotoxicity call (relative viability < 0.9); conditions: 10 µM
S. aureus RN4220 = assay: growth inhibition call (relative growth <= 0.2); conditions: 50 µM
HepG2 = assay: cytotoxicity call (relative viability < 0.9); conditions: 10 µM

Row | SMILES | cytotoxicity call (HSkMC) | growth inhibition call (S. aureus RN4220) | cytotoxicity call (HepG2)
1 | CCN1CCN(c2nc([N+](=O)[O-])nn2C)CC1 | inactive | inactive | –
2 | CC(N)C(O)c1ccc(O)c(O)c1 (stereo unspecified) | inactive | inactive | –
3 | COC(=O)[C@@]1(Cc2ccccc2N=[N+]=[N-])N=C(c2ccc(OCCCO)cc2)O[C@H]1c1ccccc1CN=[N+]=[N-] | inactive | inactive | –
4 | COc1ccc(C=O)cc1 | inactive | inactive | –
5 | [N-]=[N+]=Nc1ccc2[nH]ccc2c1 | inactive | inactive | –
6 | NCCc1c[nH]c2ccc(C(N)=O)cc12 | inactive | inactive | –
7 | COC(=O)C[C@@H]1CC[C@H]2NC[C@H](O)COC[C@@H]2O1 | inactive | inactive | –
8 | CCN(CC)S(=O)(=O)c1ccc(Cn2nc(C(=O)Nc3ccc(N4CCCCC4)cc3)c3ccccc32)cc1 | inactive | inactive | –
9 | CC1(C)NN1CCCN1NC1(C)C (stereo unspecified) | inactive | inactive | –
10 | CC[C@@H](C)NC=C1C(=O)NC(=O)NC1=O | inactive | inactive | –
11 | O=C1CC[C@]2(CCCN(Cc3cnc[nH]3)C2)N1 | inactive | inactive | –
12 | N[C@@]1(C(=O)O)CC[C@@H](C(=O)O)C1.N[C@]1(C(=O)O)CC[C@H](C(=O)O)C1 | inactive | inactive | –
13 | CCC(c1cccc(O)c1)C(C)CN(C)C.Cl (stereo unspecified) | inactive | inactive | –
14 | O=C1NC2(CCNCC2)C[C@@H]1c1ccncc1 | inactive | inactive | –
15 | CO[C@@H]1C=C[C@@H]2[C@H]1N2CCO (stereo partly specified) | inactive | inactive | –
16 | O=C1NC(=S)NC(=O)C1c1ccccc1 | inactive | inactive | –
17 | C[C@@H]1CN([C@@H](C)CO)C(=O)CCCn2cc(nn2)CO[C@H]1CN(C)C(=O)Oc1cccc2ccccc12 | inactive | inactive | –
18 | CN1C(=O)NC(=O)/C(=C\C=C\c2ccco2)C1=O | inactive | inactive | inactive
19 | Cc1ccc(CC2(N)CC2)cc1 | inactive | inactive | inactive
20 | C[C@]12CC[C@@H]3c4ccc(OC(=O)N(CCCl)CCCl)cc4CC[C@H]3[C@@H]1CC[C@@H]2OP(=O)(O)O | inactive | inactive | inactive
21 | CC(=O)OC1CCC2(C)C(CCC3C2CCC2(C)C(C4=CC(=O)OC4)C(OC(C)=O)CC32O)C1 (stereo unspecified) | active | inactive | active

Row | SMILES | cytotoxicity call (HSkMC) | growth inhibition call (S. aureus RN4220) | cytotoxicity call (HepG2)
22 | COC(=O)[C@H]1[C@H](CO)[C@H]2Cn3c(ccc(C4=CCCC4)c3=O)[C@@H]1N2S(=O)(=O)c1cn(C)cn1 | inactive | inactive | inactive
23 | O=C(O)C(Cl)Cl | inactive | inactive | inactive
24 | CCCCCCCCCCCCCC(=O)O[C@@H]1[C@@H](C)[C@@]2(O)[C@@H](C=C(CO)C[C@]3(O)C(=O)C(C)=C[C@@H]23)[C@@H]2C(C)(C)[C@]12OC(C)=O | active | inactive | active
25 | N#Cc1nn(-c2c(Cl)cc(C(F)(F)F)cc2Cl)c(N)c1S(=O)C(F)(F)F (stereo unspecified) | inactive | inactive | active
26 | NCc1cccnc1 | inactive | inactive | inactive
27 | NC(=O)c1cn([C@@H]2O[C@H](CO)[C@@H](O)[C@H]2O)c2ncnc(N)c12 | inactive | inactive | active
28 | O=C(NC[C@H]1CCC2(CCNCC2)O1)C1CC1 | inactive | inactive | inactive
29 | CCCC(=O)O[C@H]1CN2CC[C@H](O)[C@@H]2[C@@H](O)[C@@H]1O | inactive | inactive | inactive
30 | CC[N+]1(C)CCCC(OC(=O)C(O)(c2ccccc2)c2ccccc2)C1.[Br-] (stereo unspecified) | inactive | inactive | inactive
31 | CC(=O)OCC1=C(C(=O)O)N2C(=O)[C@@H](N)[C@H]2SC1 | inactive | inactive | inactive
32 | Cl.c1ccc2c(c1)OCC(C1=NCCN1)O2 (stereo unspecified) | inactive | inactive | active
33 | C[C@H](CO)N1C[C@H](C)[C@@H](CN(C)C(=O)Oc2ccccc2)OCc2ccccc2-c2c(n(C)c3ccccc23)C1=O | inactive | inactive | inactive
34 | Cl.NCC(CC(=O)O)c1ccc(Cl)cc1 (racemic) | inactive | inactive | inactive
35 | COC(=O)C1CC(OC(C)=O)C(=O)C2C1(C)CCC1C(=O)OC(c3ccoc3)CC12C (stereo unspecified) | inactive | inactive | inactive
36 | NC[C@@H](CS(=O)(=O)O)c1ccc(Cl)cc1 | inactive | inactive | inactive
37 | C=C(C)[C@@H]1CCC(C)=C[C@H]1c1c(O)cc(CCCCC)cc1O | active | active | inactive
38 | Cc1nc(-c2ccc(-c3ccc(C(=O)N4CCc5cc6c(cc54)C4(CCN(C)CC4)CO6)cc3)c(C)c2)no1 | active | active | active
39 | COC(=O)C[C@H]1CC[C@@H]2NC[C@@H](O)COC[C@H]2O1 | inactive | inactive | inactive
40 | O=C(O)C[C@H]1CC[C@@H]2NC[C@H](O)COC[C@H]2O1 | inactive | inactive | inactive
41 | COC(=O)C(c1ccccc1)C1CCCCN1.Cl (stereo unspecified) | inactive | inactive | inactive
42 | CNC(=O)[C@@H]1COC[C@@H]2CN(CC(C)C)C[C@@H]21 | inactive | inactive | inactive

Row | SMILES | cytotoxicity call (HSkMC) | growth inhibition call (S. aureus RN4220) | cytotoxicity call (HepG2)
43 | c1ccc2c(c1)Nc1ccccc1S2 | inactive | inactive | active
44 | O.O=P1(N(CCCl)CCCl)NCCCO1 (stereo unspecified) | inactive | inactive | inactive
45 | COC(=O)C1=COC(C)C2CN3CCC4(C(=O)Nc5ccccc54)C3CC12 (stereo unspecified) | inactive | inactive | inactive
46 | c1ccc2c(c1)sc1ccccc12 | active | inactive | inactive
47 | CC12CCC(=O)C=C1C=CC1C2CCC2(C)C1CCC2(O)CCC(=O)[O-].[K+] (stereo unspecified) | inactive | inactive | inactive
48 | COC(=O)[C@]1(Cc2ccccc2CN=[N+]=[N-])N=C(c2ccc(OCCCO)cc2)O[C@@H]1c1ccccc1CN=[N+]=[N-] | inactive | inactive | active
49 | Cc1cc(C(=O)N2CC[C@H]3[C@@H]2CCN3C)no1 | inactive | inactive | inactive
50 | Clc1ccc(C(c2ccc(Cl)cc2)C(Cl)(Cl)Cl)cc1 | inactive | inactive | inactive
51 | CCOP(=S)(OCC)Oc1cc(C)nc(C(C)C)n1 | inactive | inactive | inactive
52 | CN1CCN(Cc2ccc[nH]2)CC1 | inactive | inactive | inactive
53 | Cc1ccc(-n2nccn2)c(C(=O)N2CCN(c3nc4cc(Cl)ccc4o3)CCC2C)c1 (stereo unspecified) | inactive | inactive | inactive
54 | CC(=O)OC1CC(OC2C(O)CC(OC3C(O)CC(OC4CCC5(C)C(CCC6C5CC(O)C5(C)C(C7=CC(=O)OC7)CCC65O)C4)OC3C)OC2C)OC(C)C1OC1OC(CO)C(O)C(O)C1O (stereo unspecified) | active | inactive | active
55 | CN1CCN(CC2CC2)C(=O)C12CCNCC2 | inactive | inactive | inactive
56 | CCCCCCCCCCCCCCCC[N+](C)(C)C.[Br-] | active | inactive | active
57 | N[C@@H](Cc1ccc(O)cc1)C(=O)NCC(=O)NCC(=O)O | inactive | inactive | inactive
58 | CN[C@@H](C)Cc1cnccn1 | inactive | inactive | inactive
59 | CC(=O)OC[C@]12CCC(C)=C[C@H]1O[C@@H]1[C@H](O)[C@@H](OC(C)=O)[C@@]2(C)[C@]12CO2 | active | inactive | active
60 | CC[C@@]1(O)C[C@H](O[C@H]2C[C@H](N(C)C)[C@H](O)[C@H](C)O2)c2c(cc3c(c2O)C(=O)c2c(O)ccc(O)c2C3=O)[C@H]1C(=O)OC | inactive | inactive | active
61 | COc1cc2c(cc1C=O)OCO2 | inactive | inactive | inactive
62 | Nc1ccc(-c2ccc(N)cc2)cc1 | inactive | inactive | inactive
63 | CC(C)(C)C(=O)C(Oc1ccc(Cl)cc1)n1cncn1 (stereo unspecified) | inactive | inactive | inactive

Row | SMILES | cytotoxicity call (HSkMC) | growth inhibition call (S. aureus RN4220) | cytotoxicity call (HepG2)
64 | C1CO[C@H]2[C@@H](C1)CNC[C@H]2N1CCOCC1 | inactive | inactive | inactive
65 | Nc1nc(N)nc(NC2CC2)n1 | inactive | inactive | inactive
66 | CN1C(=O)[C@]23CC4=CC=C[C@H](O)[C@H]4N2C(=O)[C@@]1(CO)SS3 | active | inactive | active
67 | C[C@@H](N)Cc1c[nH]c2ccc(OCc3cccs3)cc12 | inactive | inactive | inactive
68 | CN(C)C(=O)Oc1ccc[n+](C)c1.[Br-] | inactive | inactive | active
69 | Cc1ccc(OC(=O)N(C)C[C@H]2OCc3ccccc3-c3c(n(C)c4ccccc34)C(=O)N([C@H](C)CO)C[C@H]2C)cc1 | inactive | inactive | inactive
70 | CC(C)(O)/C=C/C(=O)[C@](C)(O)[C@H]1[C@H](O)C[C@@]2(C)[C@H]3CC=C4[C@@H](CC(=O)C(=O)C4(C)C)[C@]3(C)C(=O)C[C@]12C | active | inactive | active
71 | N#C[C@H](O[C@@H]1O[C@H](CO)[C@@H](O)[C@H](O)[C@H]1O)c1ccc(O)cc1 | inactive | inactive | inactive
72 | COc1ccc2c(c1)C[C@H](N)C2 | inactive | inactive | inactive
73 | COc1ccc(OC(=O)N(C)C[C@H]2OCc3ccccc3-c3c(n(C)c4ccccc34)C(=O)N([C@@H](C)CO)C[C@H]2C)cc1 | inactive | inactive | inactive
74 | O=C(CN1CCOCC1)c1ccc(O)cc1O | inactive | inactive | inactive
75 | O=C([O-])CCCO.[Na+] | inactive | inactive | inactive
76 | CN1CCCCC1c1ccc(-c2cccnc2)nc1.Cl (stereo unspecified) | inactive | inactive | inactive
77 | O=C1NCN(c2ccccc2)C12CCNCC2 | inactive | inactive | inactive
78 | CC(=O)N[C@@H]1[C@H](O[C@@H]2O[C@H](C[C@@H](O)[C@H]3O[C@@H](n4ccc(=O)[nH]c4=O)[C@H](O)[C@@H]3O)[C@H](O)[C@H](O)[C@H]2NC(=O)/C=C/CCCCCCCCC(C)C)O[C@@H](CO)[C@H](O)[C@H]1O | inactive | active | active
79 | O=C1CO[C@]2(CNCCOC2)CN1CC1CC1 | inactive | inactive | inactive
80 | C[C@H](CO)N1C[C@H](C)[C@H](CN(C)C(=O)Oc2cccc3ccccc23)OCc2cnnn2CCCC1=O | inactive | inactive | inactive
81 | O=C1CC[C@@H]2NCC[C@H]2N1 | inactive | inactive | inactive

— the antibiotic and cytotoxicity screens of Wong et al. (2023)
